# Experimental data reported in the supplement of paper PMC8728848.
# The other results are listed elsewhere or left out.
# B1: CFEM-SCL (Saccharomyces cerevisiae), O13547 (protein)
# chain: MRATTLLSSVVSLALLSKEVLATPPACLLACVAQVGKSSSTCDSLNQVTCYCEHENSAVKKCLDSICPNNDADAAYSAFKSSCSEQNASLGD
# Legend:
# Test in all cases: glycan array binding signal (z-score within array); higher = stronger binding
# Details in all cases: glycan notation: IUPAC condensed, linker removed
# [1] = target: Neu5Ac(a2-6)Gal(b1-4)GlcNAc(b1-2)Man(a1-3)[Man(a1-6)]Man(b1-4)GlcNAc(b1-4)GlcNAc
# Procedure, shortened: (§1)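 Negative Z-scores can be read as non-binding. The Z-score is calculated within each array and then averaged across arrays of one protein sequence at different concentrations or buffers and across linkers. Arrays, 3228 in all, were curated from the Consortium for Functional Glycomics database and kept only where the protein sequence was available.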
# [2] = target: Neu5Ac(a2-6)Gal(b1-4)GlcNAc(b1-2)Man(a1-3)[Neu5Ac(a2-3)Gal(b1-4)GlcNAc(b1-2)Man(a1-6)]Man(b1-4)GlcNAc(b1-4)GlcNAc
# Procedure, shortened: as §1
# [3] = target: Neu5Ac(a2-6)Gal(b1-4)GlcNAc(b1-2)Man(a1-3)[Neu5Ac(a2-6)Gal(b1-4)GlcNAc(b1-2)Man(a1-6)]Man(b1-4)GlcNAc(b1-4)GlcNAc
# Procedure, shortened: as §1
# [4] = target: Neu5Ac(a2-6)Gal(b1-4)GlcNAc(b1-2)Man(a1-3)[Neu5Ac(a2-6)Gal(b1-4)GlcNAc(b1-2)Man(a1-6)]Man(b1-4)GlcNAc(b1-4)[Fuc(a1-6)]GlcNAc
# Procedure, shortened: as §1
# [5] = target: Neu5Ac(a2-6)Gal(b1-4)GlcNAc(b1-2)Man(a1-6)Man(b1-4)GlcNAc(b1-4)GlcNAc
# Procedure, shortened: as §1
# [6] = target: Neu5Ac(a2-6)Gal(b1-4)GlcNAc(b1-2)Man(a1-6)[Gal(b1-4)GlcNAc(b1-2)Man(a1-3)]Man(b1-4)GlcNAc(b1-4)GlcNAc
# Procedure, shortened: as §1
# [7] = target: Neu5Ac(a2-6)Gal(b1-4)GlcNAc(b1-2)Man(a1-6)[GlcNAc(b1-2)Man(a1-3)]Man(b1-4)GlcNAc(b1-4)GlcNAc
# Procedure, shortened: as §1
# [8] = target: Neu5Ac(a2-6)Gal(b1-4)GlcNAc(b1-2)Man(a1-6)[Man(a1-3)]Man(b1-4)GlcNAc(b1-4)GlcNAc
# Procedure, shortened: as §1
# [9] = target: Neu5Ac(a2-6)Gal(b1-4)GlcNAc(b1-2)[Neu5Ac(a2-6)Gal(b1-4)GlcNAc(b1-4)]Man(a1-3)[GlcNAc(b1-4)][Neu5Ac(a2-6)Gal(b1-4)GlcNAc(b1-2)[Neu5Ac(a2-6)Gal(b1-4)GlcNAc(b1-6)]Man(a1-6)]Man(b1-4)GlcNAc(b1-4)GlcNAc
# Procedure, shortened: as §1
# [10] = target: Neu5Ac(a2-6)Gal(b1-4)GlcNAc(b1-2)[Neu5Ac(a2-6)Gal(b1-4)GlcNAc(b1-4)]Man(a1-3)[GlcNAc(b1-4)][Neu5Ac(a2-6)Gal(b1-4)GlcNAc(b1-4)Man(a1-6)]Man(b1-4)GlcNAc(b1-4)GlcNAc
# Procedure, shortened: as §1
# [11] = target: Neu5Ac(a2-6)Gal(b1-4)GlcNAc(b1-2)[Neu5Ac(a2-6)Gal(b1-4)GlcNAc(b1-6)]Man(a1-6)[Neu5Ac(a2-6)Gal(b1-4)GlcNAc(b1-2)Man(a1-3)][GlcNAc(b1-4)]Man(b1-4)GlcNAc(b1-4)GlcNAc
# Procedure, shortened: as §1
# [12] = target: Neu5Ac(a2-6)Gal(b1-4)GlcNAc(b1-3)Gal(b1-3)GlcNAc
# Procedure, shortened: as §1
# [13] = target: Neu5Ac(a2-6)Gal(b1-4)GlcNAc(b1-3)Gal(b1-4)GlcNAc
# Procedure, shortened: as §1
# [14] = target: Neu5Ac(a2-6)Gal(b1-4)GlcNAc(b1-3)Gal(b1-4)GlcNAc(b1-2)Man(a1-3)[Neu5Ac(a2-6)Gal(b1-4)GlcNAc(b1-3)Gal(b1-4)GlcNAc(b1-2)Man(a1-6)]GalNAc
# Procedure, shortened: as §1
# [15] = target: Neu5Ac(a2-6)Gal(b1-4)GlcNAc(b1-3)Gal(b1-4)GlcNAc(b1-3)Gal(b1-4)GlcNAc
# Procedure, shortened: as §1
# [16] = target: Neu5Ac(a2-6)Gal(b1-4)GlcNAc(b1-3)Gal(b1-4)GlcNAc(b1-3)Gal(b1-4)GlcNAc(b1-2)Man(a1-3)[Neu5Ac(a2-6)Gal(b1-4)GlcNAc(b1-3)Gal(b1-4)GlcNAc(b1-3)Gal(b1-4)GlcNAc(b1-2)Man(a1-6)]GalNAc
# Procedure, shortened: as §1
# [17] = target: Neu5Ac(a2-6)Gal(b1-4)GlcNAc(b1-3)Gal(b1-4)GlcNAc(b1-3)GalNAc
# Procedure, shortened: as §1
# [18] = target: Neu5Ac(a2-6)Gal(b1-4)GlcNAc(b1-3)Gal(b1-4)GlcNAc(b1-3)[Neu5Ac(a2-6)Gal(b1-4)GlcNAc(b1-3)Gal(b1-4)GlcNAc(b1-6)]GalNAc
# Procedure, shortened: as §1
# [19] = target: Neu5Ac(a2-6)Gal(b1-4)GlcNAc(b1-3)Gal(b1-4)GlcNAc(b1-6)[Gal(b1-3)]GalNAc
# Procedure, shortened: as §1
# [20] = target: Neu5Ac(a2-6)Gal(b1-4)GlcNAc(b1-3)Gal(b1-4)[Fuc(a1-3)]GlcNAc(b1-3)Gal(b1-4)[Fuc(a1-3)]GlcNAc
# Procedure, shortened: as §1
# [21] = target: Neu5Ac(a2-6)Gal(b1-4)GlcNAc(b1-3)GalNAc
# Procedure, shortened: as §1
# [22] = target: Neu5Ac(a2-6)Gal(b1-4)GlcNAc(b1-3)[Neu5Ac(a2-6)Gal(b1-4)GlcNAc(b1-6)]GalNAc
# Procedure, shortened: as §1
# [23] = target: Neu5Ac(a2-6)Gal(b1-4)GlcNAc(b1-6)GalNAc
# Procedure, shortened: as §1
# [24] = target: Neu5Ac(a2-6)Gal(b1-4)GlcNAc(b1-6)[Gal(b1-3)GlcNAc(b1-3)]Gal(b1-4)Glc
# Procedure, shortened: as §1
# [25] = target: Neu5Ac(a2-6)Gal(b1-4)GlcNAc(b1-6)[Gal(b1-3)]GalNAc
# Procedure, shortened: as §1
# [26] = target: Neu5Ac(a2-6)Gal(b1-4)GlcNAc6S
# Procedure, shortened: as §1
# Neu5Ac(a2-6)GalNAc = target: Neu5Ac(a2-6)GalNAc
# Procedure, shortened: as §1
# [27] = target: Neu5Ac(a2-6)GalNAc(b1-4)GlcNAc
# Procedure, shortened: as §1
# [28] = target: Neu5Ac(a2-6)GalNAc(b1-4)GlcNAc6S
# Procedure, shortened: as §1
# [29] = target: Neu5Ac(a2-6)GlcNAc(b1-4)GlcNAc
# Procedure, shortened: as §1
# [30] = target: Neu5Ac(a2-6)GlcNAc(b1-4)GlcNAc(b1-4)GlcNAc
# Procedure, shortened: as §1
binder,measurement,setting,value
B1,glycan array binding signal (z-score),[1],-0.31
same,glycan array binding signal (z-score),[2],-0.351
same,glycan array binding signal (z-score),[3],-0.198
same,glycan array binding signal (z-score),[4],-0.246
same,glycan array binding signal (z-score),[5],-0.353
same,glycan array binding signal (z-score),[6],-0.165
same,glycan array binding signal (z-score),[7],-0.279
same,glycan array binding signal (z-score),[8],-0.271
same,glycan array binding signal (z-score),[9],-0.247
same,glycan array binding signal (z-score),[10],-0.268
same,glycan array binding signal (z-score),[11],-0.314
same,glycan array binding signal (z-score),[12],-0.289
same,glycan array binding signal (z-score),[13],-0.309
same,glycan array binding signal (z-score),[14],-0.057
same,glycan array binding signal (z-score),[15],-0.319
same,glycan array binding signal (z-score),[16],1.21
same,glycan array binding signal (z-score),[17],-0.313
same,glycan array binding signal (z-score),[18],-0.146
same,glycan array binding signal (z-score),[19],0.198
same,glycan array binding signal (z-score),[20],-0.25
same,glycan array binding signal (z-score),[21],-0.011
same,glycan array binding signal (z-score),[22],-0.265
same,glycan array binding signal (z-score),[23],-0.244
same,glycan array binding signal (z-score),[24],-0.309
same,glycan array binding signal (z-score),[25],0.923
same,glycan array binding signal (z-score),[26],-0.184
same,glycan array binding signal (z-score),Neu5Ac(a2-6)GalNAc,-0.281
same,glycan array binding signal (z-score),[27],-0.277
same,glycan array binding signal (z-score),[28],-0.267
same,glycan array binding signal (z-score),[29],-0.136
same,glycan array binding signal (z-score),[30],-0.345
